Test results taken from PubChem BioAssay AID1347165 (National Center for Advancing Translational Sciences (NCATS), 2019).
About 5,700 (2.6%) of roughly 220,000 compounds were called active. This list was built around the results that the source calls inconclusive (neither active nor inactive); the mix of calls is not that of the screen. The call rests on the fitted dose curve; in most records, active means well fitted inhibition curve with a large enough effect; inconclusive means small, poorly fitted or top-dose-only effect; inactive means no such curve, though single readings can be large or run the other way. A potency beside an inconclusive call is a rough fit, not a confirmed value.

These compounds were tested against Lysine-specific demethylase 5B (Homo sapiens) (UniProt Q9UGL1) (assay: Primary screen for KDM5B Histone Demethylases FDH-coupled qHTS). Conditions: FDH-coupled NADH fluorescence (FDH is formaldehyde dehydrogenase); activity change, negative = inhibition: at 57.7 µM (top of the series) unless noted.
In short: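 Coupled FDH/NAD⁺ fluorescence readout. KDM5BΔAP 200 nM final; compound titration, 10 min RT preincubation; substrate mix 12.5 µM H3K4me3, 25 µM 2-OG, 50 µM Fe(II), 100 µM ascorbate, 0.25 mM NAD⁺, 0.25 U/mL FDH; ΔRFU over 30 min.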
Further: nearly all actives have a fitted effect of over 70% in size.
Potency means the concentration at half of the fitted maximal effect; tags describe the fitted curve by direction and shape.
Wherever activity change, negative = inhibition is given: 0% is about no effect.

Sequence of UniProt Q9UGL1 (Q9UGL1 whole entry, looked up): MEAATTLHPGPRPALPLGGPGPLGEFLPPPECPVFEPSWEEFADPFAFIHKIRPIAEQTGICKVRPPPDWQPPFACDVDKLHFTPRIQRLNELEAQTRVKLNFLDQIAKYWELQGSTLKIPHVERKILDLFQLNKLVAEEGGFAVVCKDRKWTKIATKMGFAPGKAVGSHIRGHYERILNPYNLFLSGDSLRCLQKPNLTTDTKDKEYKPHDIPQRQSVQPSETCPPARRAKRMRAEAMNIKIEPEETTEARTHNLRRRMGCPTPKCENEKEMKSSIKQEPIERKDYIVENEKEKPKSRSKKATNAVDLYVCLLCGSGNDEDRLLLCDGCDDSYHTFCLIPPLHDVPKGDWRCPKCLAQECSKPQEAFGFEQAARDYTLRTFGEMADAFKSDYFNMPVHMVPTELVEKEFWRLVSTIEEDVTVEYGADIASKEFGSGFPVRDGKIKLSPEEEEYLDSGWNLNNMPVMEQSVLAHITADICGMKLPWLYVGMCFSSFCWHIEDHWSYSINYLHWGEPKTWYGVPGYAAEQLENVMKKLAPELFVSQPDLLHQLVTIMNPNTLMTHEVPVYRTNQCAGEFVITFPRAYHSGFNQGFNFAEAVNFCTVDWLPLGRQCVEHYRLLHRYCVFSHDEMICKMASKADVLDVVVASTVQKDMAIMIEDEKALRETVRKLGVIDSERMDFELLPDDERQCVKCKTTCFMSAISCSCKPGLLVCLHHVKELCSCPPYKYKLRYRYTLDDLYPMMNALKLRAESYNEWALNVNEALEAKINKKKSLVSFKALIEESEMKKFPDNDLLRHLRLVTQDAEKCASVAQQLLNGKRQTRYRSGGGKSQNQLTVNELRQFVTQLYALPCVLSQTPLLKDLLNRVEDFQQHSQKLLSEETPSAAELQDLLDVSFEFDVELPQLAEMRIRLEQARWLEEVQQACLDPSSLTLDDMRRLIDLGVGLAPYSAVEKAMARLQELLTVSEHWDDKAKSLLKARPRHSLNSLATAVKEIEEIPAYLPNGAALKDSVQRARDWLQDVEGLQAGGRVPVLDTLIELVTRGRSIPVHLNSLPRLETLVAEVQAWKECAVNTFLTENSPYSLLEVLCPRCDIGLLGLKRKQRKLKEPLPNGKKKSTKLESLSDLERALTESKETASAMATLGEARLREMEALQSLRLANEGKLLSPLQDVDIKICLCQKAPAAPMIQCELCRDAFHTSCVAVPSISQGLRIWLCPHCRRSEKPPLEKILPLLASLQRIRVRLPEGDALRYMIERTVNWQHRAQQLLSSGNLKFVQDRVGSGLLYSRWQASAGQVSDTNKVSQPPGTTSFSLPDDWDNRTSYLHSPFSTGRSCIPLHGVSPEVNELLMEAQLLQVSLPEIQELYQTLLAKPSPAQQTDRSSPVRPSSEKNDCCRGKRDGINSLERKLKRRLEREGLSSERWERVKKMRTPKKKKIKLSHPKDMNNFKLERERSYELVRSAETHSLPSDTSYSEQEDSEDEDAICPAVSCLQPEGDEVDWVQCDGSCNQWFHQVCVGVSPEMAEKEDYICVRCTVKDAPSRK

Question: Which “activity change, negative = inhibition” value does the source give for `O=C(c1ccccc1)N1CCC(Oc2cccc(F)c2)C1` (centres undefined) here?
Answer: Its value is inactive: -7.94%.

Question: For `Cn1c2c(c(=O)n(C)c1=O)C(c1ccc(C(=O)O)cc1)C1=C(CC(C)(C)CC1=O)N2` (centres undefined), which Potency is on record?
Answer: Its Potency is inconclusive: 28.2 µM [inhibitor, partial curve, poor fit].

Question: `COCCOc1ccc(C(=O)N[C@@H]2CN(C3CCN(C)CC3)CCC[C@H]2O)cc1` was tested. Which Potency did it give?
Answer: Its Potency is inconclusive: 22.4 µM [inhibitor, partial curve].

Question: With `CN(CCCNC(=O)c1cccc2[nH]ncc12)Cc1ccccc1` as the compound, how does the Potency read?
Answer: The Potency was inconclusive: 28.2 µM [inhibitor, partial curve, poor fit].

Question: For `Cc1noc(-c2ccc(N3CCC(CN4CCCC4=O)CC3)nc2)n1`, which Potency is on record?
Answer: Its Potency is inconclusive: 22.4 µM [inhibitor, partial curve, poor fit].

Question: How did the Potency turn out when `CC(=O)Nc1ccc(-c2cc(C(=O)O)c3ccccc3n2)cc1` was run?
Answer: Its Potency is inconclusive: 20 µM [inhibitor, partial curve, poor fit].

Question: How did the Potency turn out when `CCCCn1nc(C(=O)Nc2cc(S(=O)(=O)N(C)C)ccc2C)c2ccccc2c1=O` was run?
Answer: The Potency was inconclusive: 39.8 µM [inhibitor, single point].

Question: With `COc1ccc(-c2nc3cc(C)ccn3c2NC(=O)c2ccc(F)cc2)cc1` as the compound, how does the Potency read?
Answer: Its Potency is inconclusive: 39.8 µM [inhibitor, single point].

Question: How did the Potency turn out when `CN1[C@@H](CCC(=O)N2CCOCC2)CNC(=O)[C@@H]2[C@H]1CCN2Cc1ncc[nH]1` was run?
Answer: Its Potency is inconclusive: 15.8 µM [inhibitor, partial curve].

Question: For `C[C@H](Nc1ccc(C(F)(F)F)cc1[N+](=O)[O-])C(=O)OCC(=O)NC12CC3CC(CC(C3)C1)C2`, which “activity change, negative = inhibition” value is on record?
Answer: The value was inactive: 18.5%.

Question: How did the Potency turn out when `CC(C)N1CCN(CC2COc3ccccc3O2)CC1` (centres undefined) was run?
Answer: The Potency was inconclusive: 39.8 µM [inhibitor, partial curve, poor fit].

Question: Which Potency does the source give for `O=C1c2c(nc(CNc3ccc(F)cc3)n2Cc2ccccc2)NCCN1CCN1CCCCC1` here?
Answer: The Potency was inconclusive: 22.4 µM [inhibitor, partial curve].

Question: How did the Potency turn out when `Cc1ccc(S(=O)(=O)c2cn(CC(=O)Nc3ccccc3C)c3cc4c(cc3c2=O)OCO4)cc1` was run?
Answer: Its Potency is inconclusive: 28.2 µM [inhibitor, partial curve, poor fit].

Question: With `CNC(=O)c1cc2cccnn2n1` as the compound, how does the Potency read?
Answer: Its Potency is active: 31.6 µM.

Question: For `COc1ccccc1NC(=O)c1sc2nc(C)cc(C)c2c1N`, which Potency is on record?
Answer: Its Potency is inconclusive: 35.5 µM [inhibitor, partial curve, poor fit].

Question: For `CCOc1ccc(OCCC(=O)OCC(=O)Nc2c(F)cccc2F)cc1`, which “activity change, negative = inhibition” value is on record?
Answer: Its value is inactive: -14.8%.

Question: For `Cc1ccc2nc3n(c2c1)[C@@H](CNS(=O)(=O)c1ccc(C#N)cc1)COC3`, which Potency is on record?
Answer: Its Potency is inconclusive: 31.6 µM [inhibitor, single point].

Question: For `O=C(Cc1c[nH]c2ccccc12)N1CCC(Cc2nc(-c3ccccc3)n[nH]2)CC1`, which Potency is on record?
Answer: The Potency was inconclusive: 35.5 µM [inhibitor, partial curve, poor fit].

Question: Which Potency does the source give for `CN(CCC1CCOCC1)C(=O)CC1C(=O)NCCN1Cc1c(F)cccc1Cl` (centres undefined) here?
Answer: The Potency was inconclusive: 35.5 µM [inhibitor, partial curve, poor fit].

Question: `COCCNC(=O)c1nc(-c2cccc(C(F)(F)F)c2)c2cnccn12` was tested. Which Potency did it give?
Answer: The Potency was active: 25.1 µM.

Question: For `CCOC(=O)c1c(S(=O)(=O)N2CCCC(C(=O)Nc3cccc(C#N)c3)C2)c(C)n(C)c1C` (centres undefined), which activity change, negative = inhibition is on record?
Answer: The activity change, negative = inhibition was inconclusive: -32.1% [inhibitor].

Question: With `Cc1ccccc1CNC(=O)c1cccc(NC(=O)N2CCSc3ncccc32)c1` as the compound, how does the Potency read?
Answer: Its Potency is inconclusive: 25.1 µM [inhibitor, partial curve, poor fit].

Question: How did the Potency turn out when `CC(Oc1ccccc1)C(=O)Nc1ccc(OCc2cc(=O)n3ccsc3n2)cc1` (centres undefined) was run?
Answer: The Potency was inconclusive: 25.1 µM [inhibitor, partial curve, poor fit].

Question: Which “activity change, negative = inhibition” value does the source give for `CCCc1ccc(S(=O)(=O)Nc2cc(C(=O)N(C)CC(=O)NC)ccc2N2CCNCC2)cc1` here?
Answer: The value was inactive: 18.1%.

Question: How did the “activity change, negative = inhibition” value turn out when `CC(C)OC(=O)C1=C(N)Oc2c(oc(CO)cc2=O)C1c1ccc(F)cc1F` (centres undefined) was run?
Answer: Its value is inactive: 14.2%.

Question: Which Potency does the source give for `COc1ccc(Cl)cc1C(=O)N1CCCN(c2cc(-c3ccc(Br)cc3)[nH]n2)CC1` here?
Answer: Its Potency is inconclusive: 20 µM [inhibitor, partial curve, poor fit].

Question: With `COCCn1c(=NC(=O)c2ccc(S(=O)(=O)N3CCOCC3)cc2)sc2cc(S(N)(=O)=O)ccc21` as the compound, how does the Potency read?
Answer: The Potency was inconclusive: 39.8 µM [inhibitor, single point].

Question: With `CC(CNC(=O)CN1C(=O)COc2ccc(S(=O)(=O)N3CCCCCC3)cc21)c1ccccc1` (centres undefined) as the compound, how does the Potency read?
Answer: The Potency was inconclusive: 15.8 µM [inhibitor, partial curve, poor fit].

Question: With `CCCCNC(=O)c1nn(-c2ccc(C)cc2)c(=O)n(C)c1=O` as the compound, how does the “activity change, negative = inhibition” value read?
Answer: The value was inactive: -9.13%.

Question: For `COc1ccc(OCC2(C)COc3ccc(C(=O)Nc4cccnc4)cc3N2)cc1` (centres undefined), which Potency is on record?
Answer: Its Potency is active: 31.6 µM.

Question: Which Potency does the source give for `OCCCn1cnc2cc(-n3ccnc3-c3cc4n(n3)CCNC4)ccc21` here?
Answer: The Potency was inconclusive: 2.51 µM [inhibitor, partial curve].

Question: For `COc1ccc(C(=O)N2CCC3(CC2)OC(=O)N(Cc2ccccc2F)C3(C)c2ccccc2)cc1` (centres undefined), which “activity change, negative = inhibition” value is on record?
Answer: Its value is inactive: -19.2%.

Question: For `COC(=O)C(C)Oc1ccc2c(C)c(Cc3ccccc3)c(=O)oc2c1` (centres undefined), which Potency is on record?
Answer: Its Potency is inconclusive: 20 µM [inhibitor, partial curve, poor fit].

Question: With `O=C(c1ccc(F)cc1)N1CCc2nc(C3CC3)nc(-c3ccc(O)cc3)c2CC1` as the compound, how does the “activity change, negative = inhibition” value read?
Answer: Its value is inactive: -20.1%.

Question: `COc1ccc2c(c1)Cc1sc(NC(=O)c3ccccc3Cl)nc1-2` was tested. Which Potency did it give?
Answer: The Potency was inconclusive: 12.6 µM [inhibitor, partial curve, poor fit].

Question: How did the “activity change, negative = inhibition” value turn out when `CCCN(CCC)c1nc(-c2ccncc2)nc2ccccc12` was run?
Answer: Its value is inactive: 2.53%.

Question: Which Potency does the source give for `Cc1ccccc1NC(=O)c1c(NC(=O)c2ccco2)sc2c1CCC(C(C)(C)C)C2` (centres undefined) here?
Answer: The Potency was inconclusive: 31.6 µM [inhibitor, single point].

Question: `COc1ccc(OC)c(NC(=O)Cn2c(-c3ccccc3)nc(C)cc2=O)c1` was tested. Which “activity change, negative = inhibition” value did it give?
Answer: Its value is inactive: -3.28%.

Question: With `O=C1C(c2cccc(Br)c2)N(CCc2ccccc2)C(=O)CN1C1CCCCC1` (centres undefined) as the compound, how does the Potency read?
Answer: The Potency was inconclusive: 20 µM [inhibitor, partial curve, poor fit].

Question: With `CC(C)c1noc(-c2cn(C3CCN(C(=O)C4(c5ccccc5)CC4)CC3)nn2)n1` as the compound, how does the Potency read?
Answer: Its Potency is inconclusive: 5.01 µM [inhibitor, single point].

Question: Which activity change, negative = inhibition does the source give for `CCOc1ccc(C(=O)Nc2cccc(OCc3cc(=O)n4ccccc4n3)c2)cc1` here?
Answer: The activity change, negative = inhibition was inconclusive: -37.6% [inhibitor].

Question: For `COCC(=O)n1nc(NCc2ccc(F)cc2)nc1NCc1ccc(F)cc1`, which Potency is on record?
Answer: Its Potency is inconclusive: 39.8 µM [inhibitor, single point].

Question: With `O=C1NCCN(Cc2ccoc2)C1CC(=O)N(CCO)Cc1ccccc1F` (centres undefined) as the compound, how does the Potency read?
Answer: The Potency was inconclusive: 17.8 µM [inhibitor, single point].

Question: With `CN(C)C(=S)NC(=O)C12CC3(C)CC(C)(CC(C)(C3)C1)C2` as the compound, how does the Potency read?
Answer: The Potency was inconclusive: 39.8 µM [inhibitor, single point].

Question: `CCSc1ncc(CN2CC[C@@H](NC(=O)c3cnccn3)[C@H](O)C2)cn1` was tested. Which Potency did it give?
Answer: The Potency was inconclusive: 20 µM [inhibitor, partial curve].

Question: Which Potency does the source give for `Cc1[nH]c2ccccc2c1C(c1ccc(F)cc1)c1c(C)[nH]c2ccccc12` here?
Answer: Its Potency is inconclusive: 8.91 µM [inhibitor, full curve, poor fit].

Question: `O=C(Cn1c(=O)c2ccccc2n(CC(=O)Nc2ccc(Cl)cc2)c1=O)NCCc1ccccc1` was tested. Which Potency did it give?
Answer: Its Potency is inconclusive: 28.2 µM [inhibitor, single point].

Question: With `Cc1ccc(-c2csc(Nc3ccc(N(C)C)cc3)n2)cc1` as the compound, how does the “activity change, negative = inhibition” value read?
Answer: The value was inactive: -2.49%.

Question: `CCN1c2cc(C(=O)Nc3ccc(Cl)cc3)ccc2C(=O)N2CCCC21` (centres undefined) was tested. Which Potency did it give?
Answer: Its Potency is inconclusive: 2.82 µM [inhibitor, partial curve, poor fit].

Question: With `CCOC(=O)c1c(C)[nH]c(CCC(=O)NCCCN2CCN(c3cc(Cl)ccc3C)CC2)c1C` as the compound, how does the Potency read?
Answer: The Potency was inconclusive: 14.1 µM [inhibitor, partial curve, poor fit].

Question: With `c1coc(CNc2nc(Nc3cccc4ccccc34)nc3ccccc23)c1` as the compound, how does the Potency read?
Answer: The Potency was inconclusive: 39.8 µM [inhibitor, single point].

Question: Which Potency does the source give for `CCOc1ccc(Nc2oc(-c3ccccc3C)nc2C#N)cc1` here?
Answer: Its Potency is inconclusive: 39.8 µM [inhibitor, single point].

Question: Which Potency does the source give for `O=C(CCc1c[nH]c2ccccc12)NC1CCCc2c1[nH]c1ccc(F)cc21` (centres undefined) here?
Answer: The Potency was inconclusive: 15.8 µM [inhibitor, single point].

Question: For `COc1ccc(C(=O)Oc2c(Sc3ccc(Cl)cc3)c(C)nn2C(C)(C)C)cc1OC`, which Potency is on record?
Answer: Its Potency is inconclusive: 3.98 µM [inhibitor, partial curve, poor fit].

Question: For `O=C(Nc1cccc(-c2ccc(N3CCOCC3)nn2)c1)Nc1ccccc1F`, which Potency is on record?
Answer: Its Potency is inconclusive: 31.6 µM [inhibitor, single point].

Question: Which “activity change, negative = inhibition” value does the source give for `O=C(c1cc(S(=O)(=O)NC2CC2)c(Cl)cc1Cl)N1CCN(c2ccccc2O)CC1` here?
Answer: The value was inactive: 9.14%.

Question: `COc1ncccc1-c1ccnc(-c2nnc(C)n2C2CCCCC2)c1` was tested. Which Potency did it give?
Answer: The Potency was active: 28.2 µM.

Question: `CCOc1ccccc1CN1C[C@@H](CO)[C@H](C(=O)N(C)C)C1` was tested. Which “activity change, negative = inhibition” value did it give?
Answer: Its value is inactive: 4.39%.

Question: `N#CCOc1ccc(NC(=O)c2ccc3ccccc3n2)cc1` was tested. Which “activity change, negative = inhibition” value did it give?
Answer: Its value is inactive: 15.4%.

Question: How did the “activity change, negative = inhibition” value turn out when `COc1cc(F)ccc1-c1ccc(COc2ccc3c(cnn3CCC(=O)O)c2)cc1` was run?
Answer: Its value is inactive: -20.4% [at 86.2 µM].

Question: How did the “activity change, negative = inhibition” value turn out when `CN1[C@@H](CCC(=O)N2CCC(O)CC2)CNC(=O)[C@@H]2[C@H]1CCN2Cc1ccc(S(C)(=O)=O)cc1` was run?
Answer: The value was inactive: -33.3%.

Question: For `Cc1ccc(C)n1-c1c(C(=O)NCC(C)c2ccccc2)sc2ncccc12` (centres undefined), which Potency is on record?
Answer: Its Potency is inconclusive: 22.4 µM [inhibitor, single point].

Question: Which Potency does the source give for `CCOc1ccccc1CN1CCNC(=O)C1CC(=O)NCc1ccco1` (centres undefined) here?
Answer: The Potency was inconclusive: 11.2 µM [inhibitor, partial curve, poor fit].

Question: How did the Potency turn out when `CC(=O)c1sc2nc(C)c3c(c2c1N)CCCC3` was run?
Answer: The Potency was inconclusive: 39.8 µM [inhibitor, single point].
